The campaign covered roughly 330,000 compounds. About 1,700 (0.52%) were called active. This list was built around the results that the source calls inconclusive (neither active nor inactive); the mix of calls is not that of the screen. Calls follow the shape of the dose curve; as a rule, active = well fitted inhibition curve with a large enough effect; inconclusive = small, poorly fitted or top-dose-only effect; inactive = no such curve, though single readings can be large or run the other way. Potencies beside an inconclusive call are fits to weak or partial responses and may not hold up.
What follows are compounds tested against Beta-lactamase (Escherichia coli (strain K12)) (UniProt P00811) (assay: qHTS Inhibitors of AmpC Beta-Lactamase (assay without detergent)). Settings: AmpC nitrocefin hydrolysis, absorbance 480 nm, 0.0001% Triton; series mostly up to 57.1 µM.
UniProt P00811, sequence (P00811 whole entry, looked up): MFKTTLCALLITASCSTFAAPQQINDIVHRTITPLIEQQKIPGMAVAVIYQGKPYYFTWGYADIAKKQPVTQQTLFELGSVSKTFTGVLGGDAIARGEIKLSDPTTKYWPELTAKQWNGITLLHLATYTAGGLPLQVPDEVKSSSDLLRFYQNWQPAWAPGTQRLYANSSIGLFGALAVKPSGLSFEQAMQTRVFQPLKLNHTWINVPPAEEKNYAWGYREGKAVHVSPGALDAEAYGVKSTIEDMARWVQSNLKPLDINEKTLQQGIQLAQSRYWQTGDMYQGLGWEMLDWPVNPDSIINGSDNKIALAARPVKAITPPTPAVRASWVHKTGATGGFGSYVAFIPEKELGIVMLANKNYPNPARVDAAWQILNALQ
Method: NIH Molecular Libraries Probe Production Network [MLPCN] NIH Chemical Genomics Center [NCGC] Assay Provider: Professor Brian Shoichet, UCSF Assay Overview: This aggregation profiling approach exploits the sensitivity of aggregate formation to detergent. Inhibition of b-lactamase is measured in the presence and absence of 0.01% Triton X-100. This particular assay had the prescence of 0.01% Triton X-100. See Pubchem assay "Promiscuous and Specific Inhibitors of AmpC Beta-Lactamase (assay without detergent)" for related screen. Compounds that inhibit only in the absence of detergent are considered likely promiscuous aggregators. A screen of 1,030 compounds was performed in Brian Shoichet's lab in 96-well format. AmpC activity was measured by following the absorbance at 480 nm. Nitrocefin is a chromogenic substrate: while nitrocefin is yellow (lmax 390 nm), the product of its hydrolysis is red (lmax 486 nm, 17,000 M-1). AmpC beta lactamase was provided by Shoichet Lab, UCSF.
Buffer: 20 mM phosphate buffer, pH 7.0 Triton X-100: No Detergent screen: 0.0001%, Detergent screen: 0.01%. Reagents/Controls: Buffer in columns 3 and 4 as negative control (no enzyme). 5.3 nM AmpC in columns 1, 2, 5-48. Titration of UCSF compound 9 control (from 10 mM, then 1:2) pin-transferred to column 2. Column 1 is neutral (100% activity). Assay Steps: Six uL of reagents were dispensed to 1536-well Greiner black clear bottom plates. Compounds and controls (23 nL) were transferred via Kalypsys PinTool. The plates were incubated for 15 min at room temperature, and then 2 uL of 800 uM solution of nitrocefin was added to start the reaction. The plates were immediately transferred to and read every 20 seconds for 4 min on ViewLux (Perkin-Elmer) High-throughput CCD imager using 480 nm absorbance protocol. During dispense, reagent bottles were kept submerged into 4 deg C water bath. Keywords: NIH Roadmap, MLSCN, MLI, MLSMR, qHTS, NCGC, AmpC Beta-Lactamase, Aggregation
`O=C1NC(Cc2ccccc2)c2nc3ccc(Cl)cc3c(=O)n2-c2ccccc21` (stereo not given) was tested, and the Potency was inconclusive: 11.2 µM [inhibitor, partial curve].
`CC(=O)Nc1ccc(NC(=O)C(C)Oc2ccccc2C(=O)NCc2ccccc2)cc1` (stereo not given) was tested, and the Potency was inconclusive: 39.8 µM [inhibitor, single point].
With `N/C(=N\OC(=O)c1ccc(Cl)cc1)c1nonc1N` the Potency was “inactive”.
With `COc1cccc(CN(C)C(=O)c2ccc(OCC(=O)Nc3cccc(C(F)(F)F)c3)c(OC)c2)c1` the Potency was “inactive”.
For `OC(c1cccs1)(c1cccs1)C1C[N+]2(CF)CCC1CC2` (stereo not given), the Potency was inconclusive: 0.112 µM [inhibitor, full curve, poor fit].
`c1ccc(-c2nccc(-c3ccco3)n2)nc1` was tested, and the Potency was “inactive”.
For `c1ccc(CCc2nc(-c3ccccn3)no2)cc1`, the Potency was inconclusive: 6.31 µM [inhibitor, single point].
With `CS(=O)(=O)c1ccc2nc(NC(=O)Nc3cccc(Cl)c3)sc2c1` the Potency was active: 12.6 µM.
With `CC(Oc1ccc(Cl)cc1)c1ccnn1S(=O)(=O)c1ccc(Cl)cc1` (stereo not given) the Potency was inconclusive: 6.31 µM [inhibitor, single point].
With `Cc1ccc(Nc2nnc(SCC(=O)Nc3cccc(S(=O)(=O)NC4=NCCCCC4)c3)s2)cc1` the Potency was inconclusive: 1.58 µM [inhibitor, partial curve].
`CSc1ccc(CN2CCC(n3nccc3NC(=O)c3ccccc3C)CC2)cc1` was tested, and the Potency was “inactive”.
For `COC(=O)c1ccc(CSc2nc(-c3ccccc3)cs2)o1`, the Potency was “inactive”.
With `COc1ccc(CCn2c(O)cc3nn(-c4nc5ccccc5s4)c(=O)c-3c2C)cc1` the Potency was active: 10 µM.
In the case of `CCn1c(SCc2nc3scc(-c4ccccc4)c3c(=O)[nH]2)nnc1-c1cccs1`, the Potency is reported as inconclusive: 3.55 µM [inhibitor, partial curve].
For `C/C(CC(=O)Nc1cc(C)ccn1)=N\NC(=O)c1cccc(C)c1O`, the Potency was inconclusive: 7.94 µM [inhibitor, partial curve].
With `CNc1ccc(/C=C/C(=O)c2ccc3c(c2)OCCO3)cc1[N+](=O)[O-]` the Potency was inconclusive: 1.12 µM [inhibitor, full curve, poor fit].
In the case of `CCc1ccc(NC(=O)C(NS(=O)(=O)c2cccc3nsnc23)c2ccccc2)cc1` (stereo not given), the Potency is reported as inconclusive: 39.8 µM [inhibitor, single point].
`O=C(COC(=O)C12CC3CC(CC(C3)C1)C2)Nc1nc2c(F)c(F)c(F)cc2s1` was tested, and the Potency was active: 10 µM.
With `COc1cccc(-n2c(/C=C/c3ccc(O)c(O)c3)nc3ccccc3c2=O)c1` the Potency was active: 17.8 µM.
With `Nc1ncnc2sc3c(c12)CCNC3` the Potency was “inactive”.
For `CCOc1ccccc1NC(=O)c1cc(C(=O)c2cc(Br)ccc2O)coc1=N`, the Potency was inconclusive: 5.01 µM [inhibitor, full curve, poor fit].
`Cc1ccccc1N1C(=O)/C(=C/c2ccco2)C(=O)NC1=S` was tested, and the Potency was active: 7.08 µM.
In the case of `CCCc1ncc(C(=O)c2ccc(OC)cc2)n1C`, the Potency is reported as “inactive”.
`O=C(NCC1CCCO1)c1ccc(N2CCCCC2)nc1` (stereo not given) was tested, and the Potency was inconclusive: 6.31 µM [inhibitor, single point].
With `COc1cccc(/C=N/NC(=O)C(C)n2nc(C)c([N+](=O)[O-])c2C)c1O` (stereo not given) the Potency was “inactive”.
`CN(C)CCC=C1c2ccccc2CCc2ccccc21` was tested, and the Potency was “inactive”.
In the case of `CC(=O)c1ccc2c(c1)C1C(Cl)C(Sc3ccccc3[N+](=O)[O-])CC1C(c1ccccc1[N+](=O)[O-])N2` (stereo not given), the Potency is reported as inconclusive: 3.16 µM [inhibitor, single point].
In the case of `Cc1cccc(N/N=C/c2ccc(O)c(O)c2O)c1`, the Potency is reported as inconclusive: 11.2 µM [inhibitor, partial curve].
In the case of `COc1cc(SC)ccc1C(=O)NCCOc1c(C)cc(C)cc1C`, the Potency is reported as “inactive”.
With `O=C(CCNS(=O)(=O)c1cccs1)N1CCN(c2cccc(C(F)(F)F)c2)CC1` the Potency was “inactive”.
With `CCC(=O)N(c1nnc(SCC(=O)c2ccc[nH]2)s1)C1CC1` the Potency was inconclusive: 31.6 µM [inhibitor, single point].
For `Cc1onc(-c2c(Cl)cccc2Cl)c1C(=O)N/N=C(\N)COc1ccc(Cl)cc1`, the Potency was inconclusive: 31.6 µM [inhibitor, single point].
`CN(C)S(=O)(=O)c1ccc(C(=O)Nc2cc(S(=O)(=O)Nc3ccccc3Cl)ccc2N2CCCCC2)cc1` was tested, and the Potency was active: 3.16 µM.
For `O=C(NCc1ccccn1)c1coc(=O)c(Br)c1`, the Potency was “inactive”.
In the case of `N=c1nc(SCCC(=O)O)ss1`, the Potency is reported as inconclusive: 0.141 µM [inhibitor, full curve, poor fit].
In the case of `CCc1nn(CC(=O)N(C)C2CCCCC2)c(=O)c2cc3cc(C)ccc3n12`, the Potency is reported as “inactive”.
`COCCCNC(=O)CC1Oc2ccccc2NC1=O` (stereo not given) was tested, and the Potency was active: 10 µM.
For `Cc1coc2cc3oc(=O)c4c(c3cc12)CCC4`, the Potency was “inactive”.
For `Cc1ccc(NC(=O)N2CCN(c3ncccc3C(F)(F)F)CC2)cc1`, the Potency was “inactive”.
With `COC(=O)CN1C(=O)[C@H]2[C@@H](c3ccc(C)o3)N3C(=O)CN(CC4CC4)C(=O)[C@@]3(Cc3ccccc3)[C@H]2C1=O` the Potency was “inactive”.
`Cc1ccc(-c2nc(-c3cccnc3)sc2CC(=O)Nc2ccc(C)c(Cl)c2)cc1` was tested, and the Potency was inconclusive: 7.08 µM [inhibitor, single point].
`COc1cccc(NC(=O)Nc2ccc3nsnc3c2)c1` was tested, and the Potency was inconclusive: 6.31 µM [inhibitor, single point].
With `Cc1ccc(C(=O)NN(C)c2nc3ccccc3nc2C(F)(F)F)cc1` the Potency was inconclusive: 6.31 µM [inhibitor, partial curve, poor fit].
With `O=C(Nc1ccc(Cl)c(Cl)c1)Nc1ccon1` the Potency was inconclusive: 10 µM [inhibitor, partial curve].
For `N#CCC(=O)NCC1(c2ccccc2)CCCC1`, the Potency was inconclusive: 0.282 µM [inhibitor, full curve, poor fit].
In the case of `O=c1[nH]c(SCc2ccccc2Cl)nc2c1cnn2-c1ccccc1`, the Potency is reported as inconclusive: 28.2 µM [inhibitor, single point].
For `NC(=S)NNC(=O)/C(=C/c1ccc(Br)cc1)NC(=O)c1ccccc1`, the Potency was inconclusive: 39.8 µM [inhibitor, partial curve].
In the case of `CC(=O)c1c(NC(=O)c2ccccc2)[nH]c(-c2ccccc2)nc1=S`, the Potency is reported as active: 22.4 µM.
For `Cc1ccnc(NC(=O)CNC(=O)C23CC4CC(CC(C4)C2)C3)c1`, the Potency was inconclusive: 39.8 µM [inhibitor, single point].
For `CCOc1ccccc1NC(=O)CSc1cn[nH]n1`, the Potency was inconclusive: 31.6 µM [inhibitor, single point].
With `Cc1ccc(NS(=O)(=O)c2cccc(C(=O)NNC(=O)c3cccn3C)c2)c(C)c1` the Potency was active: 15.8 µM.
`FCCCOc1ccc(-c2nccc(-c3ccc(Br)cc3)n2)cc1` was tested, and the Potency was inconclusive: 0.141 µM [inhibitor, full curve, poor fit].
In the case of `C=CCNc1nc(C(=O)OCC(=O)c2ccc(F)cc2)cs1`, the Potency is reported as inconclusive: 39.8 µM [inhibitor, single point].
For `COc1cc(/C=C/c2ccc3cccc([N+](=O)[O-])c3n2)ccc1OCC#N`, the Potency was inconclusive: 35.5 µM [inhibitor, single point].
`Cc1nc(C(=O)Nc2ccc(F)cc2)nn1-c1ccc([N+](=O)[O-])cc1` was tested, and the Potency was inconclusive: 6.31 µM [inhibitor, single point].
For `CN(C)S(=O)(=O)c1cccc(-c2nnc(-c3ccccc3)o2)c1`, the Potency was “inactive”.
`Cc1ccc(NS(=O)(=O)c2cc([N+](=O)[O-])ccc2NNC(=S)Nc2cccc(Cl)c2)c(C)c1` was tested, and the Potency was inconclusive: 2.51 µM [inhibitor, full curve].
With `Cc1cccc(NS(=O)(=O)c2ccc3c(c2)Cc2cc(S(=O)(=O)Nc4cccc(C)c4C)ccc2-3)c1C` the Potency was inconclusive: 4.47 µM [inhibitor, full curve, poor fit].
`COc1ccc(/C=N/NC(=O)c2nc(-c3ccccc3)cc(-c3ccccc3)n2)cc1OC` was tested, and the Potency was “inactive”.
With `O=[N+]([O-])c1cccc(-c2ccc(C(=S)N3CCN(c4ccc(F)cc4)CC3)o2)c1` the Potency was inconclusive: 10 µM [inhibitor, partial curve].
In the case of `CC1CCN(Cc2ccc(NC(=O)C3CCN(c4nnc(-n5cccc5)s4)CC3)cc2)CC1`, the Potency is reported as inconclusive: 0.316 µM [inhibitor, full curve, poor fit].
With `CCCS(=O)(=O)c1c(S(=O)(=O)CCC)c2c(C)cccn2c1C(=O)N/N=C/c1cc(O)cc(O)c1` the Potency was inconclusive: 14.1 µM [inhibitor, partial curve].
`CCCOc1ccc(C2NC(=S)NC(C)=C2C(=O)c2ccccc2)cc1OC` (stereo not given) was tested, and the Potency was inconclusive: 1.26 µM [inhibitor, full curve, poor fit].
`Cc1onc(-c2ccccc2Cl)c1C(=O)Nc1nnc(-c2ccc(Cl)cc2Cl)s1` was tested, and the Potency was inconclusive: 44.7 µM [inhibitor, partial curve, poor fit].
For `CCn1c(SCC(=O)NNC(=O)c2ccccc2)nnc1-c1ccncc1`, the Potency was inconclusive: 6.31 µM [inhibitor, single point].
`COc1cccc2cc(S(=O)(=O)c3ccccc3)c(=Nc3ccc4c(c3)OCCO4)oc12` was tested, and the Potency was active: 3.55 µM.
In the case of `CCc1ccccc1NC(=O)CSc1ccsc1[N+](=O)[O-]`, the Potency is reported as inconclusive: 28.2 µM [inhibitor, single point].
In the case of `COc1ccc(CN2CCN(S(=O)(=O)c3ccc(C)cc3)CC2)cc1Br`, the Potency is reported as “inactive”.
`COc1ccc(NC(=O)CSc2nc3nc(-c4cccs4)cc(C(F)(F)F)c3c(=O)[nH]2)c(OC)c1` was tested, and the Potency was inconclusive: 35.5 µM [inhibitor, partial curve].
In the case of `O=C(c1ccc2c(c1)N(Cc1ccccc1)CCS2)N1CCCCC1`, the Potency is reported as inconclusive: 50.1 µM [inhibitor, partial curve, poor fit].
Also: nearly all actives have a fitted effect of over 20% in size.
Potency is read from the fitted curve at half-maximal effect; tags tell the direction and shape of the fitted curve.
